Reference: the supplement of paper PMC3334620
Whole data set: some 33,000 sequences, median “E-score (-0.5 to 0.5)” near -0.016, cut for the highest 2% near 0.32. The list shows a part of the results.

Each sequence was assayed against T1, Stp1 (UniProt B3LFK1) (assay: PBM E-score (8-mer binding enrichment) (E-score (-0.5 to 0.5)); higher = stronger / more preferred TF binding; most listed sequences are background and not binding sites). Conditions: protein concentration: 200 nM; construct: GST-full length.
T1 sequence: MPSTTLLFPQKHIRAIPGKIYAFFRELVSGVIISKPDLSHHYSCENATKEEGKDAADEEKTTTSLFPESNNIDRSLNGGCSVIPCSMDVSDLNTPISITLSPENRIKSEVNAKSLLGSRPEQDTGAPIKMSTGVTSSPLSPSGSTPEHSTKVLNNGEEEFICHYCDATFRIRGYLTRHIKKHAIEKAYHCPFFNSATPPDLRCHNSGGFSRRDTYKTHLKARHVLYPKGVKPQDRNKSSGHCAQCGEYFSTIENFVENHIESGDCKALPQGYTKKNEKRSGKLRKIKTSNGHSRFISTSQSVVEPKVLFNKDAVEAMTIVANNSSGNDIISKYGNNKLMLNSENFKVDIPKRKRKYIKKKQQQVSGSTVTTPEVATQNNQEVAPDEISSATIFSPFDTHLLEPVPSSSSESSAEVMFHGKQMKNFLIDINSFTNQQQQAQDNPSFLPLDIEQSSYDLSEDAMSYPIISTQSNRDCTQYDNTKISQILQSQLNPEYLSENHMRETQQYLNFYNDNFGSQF
How it was run: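 Yeast transcription factors carrying a GST tag, as full-length proteins or DNA-binding domains, were produced by PURExpress in vitro transcription/translation. About 100-200 nM protein was applied to universal all-10-mer Agilent arrays, double-stranded by primer extension on fresh or once-stripped slides. Bound protein was detected with fluorescent anti-GST, and scans were normalised with masliner. The Universal PBM Analysis Suite gave each ungapped eight-base word, pooled with its reverse complement, an E-score, a modified Wilcoxon-Mann-Whitney statistic.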

Row | Sequence | PBM E-score
1 | CGGAGACC | -0.203
2 | CTGACAGA | 0.0374
3 | GCCTAACA | 0.0897
4 | GTACCTTA | 0.0424
5 | CAATGCAA | 0.0668
6 | AACCACAC | 0.0193
7 | TATCAATA | 0.0831
8 | AGTAAAAT | 0.156
9 | ATTGGAAA | 0.204
10 | AAGCATCC | -0.166
11 | CGGGCTCA | -0.0951
12 | AGCCGCCA | -0.122
13 | TCACGGAA | 0.173
14 | CTATTAAG | -0.0256
15 | CGTCAGAG | -0.0954
16 | GCCGTAGC | 0.444
17 | AGGCGATA | 0.0637
18 | GTGTTACA | -0.129
19 | GACGACAA | 0.128
20 | AAACGCTA | -0.129
21 | CAATACAC | 0.0863
22 | ACTGTGCT | -0.123
23 | AGACCCGG | -0.0534
24 | CGGTGAGA | 0.0251
25 | ACCCGAGA | -0.282

Row | Sequence | PBM E-score
26 | GCACCACC | 0.027
27 | CCTACAAA | 0.146
28 | GGGCCTAC | -0.318
29 | CACTGGCG | 0.0303
30 | ATGTCCCG | -0.254
31 | AACCATTC | 0.046
32 | ACATCGCC | 0.0811
33 | CAATGCCA | 0.0614
34 | CGTTCTTA | 0.0247
35 | AATCAACT | 0.224
36 | CAAATAAC | 0.258
37 | CGCCATAC | 0.194
38 | AGTTTTAT | 0.231
39 | CCGAAGTA | -0.0196
40 | TAGAAGAA | -0.0793
41 | AAAGGACG | -0.0453
42 | AAAAATTG | 0.096
43 | TGACTGCA | -0.283
44 | CTGGAGAC | 0.0452
45 | CGTACGCA | 0.192
46 | TCCTGCAA | -0.229
47 | GGGGCGAC | -0.0956
48 | CGACATAG | -0.148
49 | TGGCATAA | 0.274
50 | ATCATCCA | -0.0547

Row | Sequence | PBM E-score
51 | AACCGTCT | -0.0654
52 | TGGCCTAA | -0.0945
53 | ACTGCCTC | 0.0766
54 | CAAGACCG | -0.132
55 | CTCTGAAG | -0.123
56 | CATGAGAC | -0.0712
57 | ATATAAAG | 0.117
58 | GGCGCATA | 0.244
59 | TGCATCAA | 0.141
60 | GTGAGCTA | -0.0636
61 | CCCACTAG | -0.383
62 | AAAGCCAC | 0.123
63 | AGGCCCGC | -0.0273
64 | GTCAAAAC | 0.134
65 | GATAGTAA | 0.102
66 | TATGTACA | -0.0325
67 | CACATCGC | -0.115
68 | AAAACGTC | -0.0214
69 | CTCGACTA | -0.233
70 | CGATGGCC | -0.0335
71 | AGGGGCCA | -0.282
72 | AGTAATAG | 0.0854
73 | TCAGATGA | 0.159
74 | CGTAAGCC | -0.0443
75 | GTAGGTGA | -0.121

Row | Sequence | PBM E-score
76 | AACTCAAA | 0.111
77 | AAGCGACG | -0.164
78 | TACACGGA | 0.259
79 | GCCACAGC | 0.0628
80 | ATCTGTAG | -0.13
81 | GCAGTACC | 0.111
82 | CAGGGCAC | 0.355
83 | GGTTTCGA | 0.199
84 | ATGGGGAG | -0.249
85 | AAAAAGCC | 0.34
86 | AGATTGTA | 0.112
87 | TATCTAAA | 0.102
88 | TACGGAGA | 0.0756
89 | CTGTACAA | -0.0346
90 | TGACGAAA | 0.113
91 | GATCGCGA | 0.135
92 | GCGCTCTA | -0.0052
93 | TAACGCGA | -0.0792
94 | CCGGTAAG | -0.032
95 | CAGAAGCA | -0.0675
96 | ATACTAAC | 0.151
97 | ACGGCTCA | 0.403
98 | ACGTGCTC | -0.0122
99 | AGCGAGAA | -0.108
100 | ACGTATCG | 0.0633

Row | Sequence | PBM E-score
101 | CGCAGTGC | 0.00839
102 | TCAACAGA | -0.0515
103 | ACCGTGCC | 0.313
104 | CTTATTAC | 0.144
105 | CGGAATTC | -0.0276
106 | CACGTAGG | -0.104
107 | CCCGGGCG | -0.104
108 | ACGTACTG | -0.0415
109 | TCCTGTAA | 0.0686
110 | ACACCTGC | 0.02
111 | ATGTATTC | -0.0744
112 | ACAATTCA | 0.103
113 | CTGCGAGA | -0.298
114 | ACCTACTG | -0.128
115 | ACTGCTGG | -0.317
116 | CGTGCACC | -0.112
117 | GATCACCC | -0.201
118 | CTACCCAC | -0.286
119 | ATACAGCG | 0.0219
120 | CTTATAAC | 0.0678
121 | ACGAGTAA | 0.135
122 | GCTCAGTA | 0.0273
123 | AAAGTTTG | 0.188
124 | CTCGGCCA | 0.0308
125 | ATTTATAC | 0.224

Row | Sequence | PBM E-score
126 | AATTGGCC | -0.249
127 | GCCTTCCA | 0.0847
128 | CCAAACGG | 0.153
129 | ACCTTATA | -0.042
130 | ACCTAGAA | -0.0377
131 | TATCATGA | -0.114
132 | GACCCGAC | -0.292
133 | CGTTACTC | -0.0431
134 | CCGGTTAA | -0.0419
135 | CGCCCCCC | -0.266
136 | GGGGAGAA | -0.229
137 | CGCAGGTA | -0.0193
138 | AGCCGGAC | 0.194
139 | GAACAGAA | 0.1
140 | CCTTAAGA | -0.0596
141 | ATTCCCTC | -0.185
142 | AAGCGGGT | -0.0561
143 | AACCAGAG | -0.0242
144 | CAAGTGTC | -0.128
145 | GCACGACC | -0.189
146 | CCAATGTA | -0.241
147 | GTAAAGTA | 0.0702
148 | GACGGCAC | 0.453
149 | AGTTGGAT | -0.0612
150 | CGACATAC | 0.232

Row | Sequence | PBM E-score
151 | AGTTACAC | 0.178
152 | GCAGGATA | -0.19
153 | CAGAATCG | 0.0469
154 | ACCTCCTA | -0.108
155 | ATATAGAG | 0.152
156 | CCGGTTGC | -0.0442
157 | ACACCGTG | 0.1
158 | AATGGCGA | 0.167
159 | CGTTGCAG | -0.078
160 | CCTAATAG | -0.0134
161 | ACATTAGA | -0.0347
162 | GGTGTGAA | 0.0905
163 | CACACATG | -0.118
164 | GAGAGCGA | -0.206
165 | CCTTTGCC | -0.0194
166 | AATTCGTA | 0.158
167 | GTGCTTTA | 0.0571
168 | CCACTGCA | 0.0532
169 | CAAGATGG | -0.115
170 | CCTAGCTC | -0.268
171 | TAATCGAA | 0.182
172 | AGACCCTG | -0.304
